Data on one molecule can be found in patent publication US5888763, “Peptides specific for the first Crk-SH3 domain” (The Rockefeller University, dated 1999).

This assay concerns the target gst-c-CrkSH3(1) (Example 2) (murine, UniProt Q64010). In words: filter binding of 35S-gst-CrkSH3(1) to blotted gst-fusion peptides.

B1: gst-4-12 (9 amino acid gst-fusion peptide of CB-1) (other)
chain: not shown
Turning to B1, the binding result was “binds”.
